Reference: PubChem BioAssay AID463173 (ICCB-Longwood Screening Facility, Harvard Medical School, 2010)
The campaign covered roughly 52,000 compounds. About 1,700 (3.3%) were called active. Rule as the data show it: active = survival mostly below about 52% (no sharp cut-off); inactive = mostly above about 56%. The list shows a part of the results.

Test system: Wild type
Assay: S. aureus survival, RN4220 and DeltatarO strains – OD600, teichoic acid synthesis inhibitors, primary screen (AID 463173)
Conditions: S. aureus RN4220 wild type/DeltatarO growth, OD600, 18 h, active compounds read low, screened at 18.75 µg/mL (by protocol)

| SMILES | survival |
| --- | --- |
| CCN1CCN(C(c2ccc(OC)cc2)c2c(O)cc(C)n(CCOC)c2=O)CC1 (configuration not stated) | inactive: 82% |
| CCOC(=O)c1c(C)oc2ccc(N(C(=O)Oc3ccccc3)S(=O)(=O)c3ccccc3)cc12 | inactive: 98% |
| COc1ccccc1NC(=O)c1c(NCc2sccc2C)sc2c1CCCCC2 | inactive: 58% |
| CN(C(=O)Cn1c(=O)n(CCCS(=O)(=O)C2CCCCC2)c(=O)c2ccccc21)c1ccccc1 | inactive: 69% |
| CCOc1ccccc1-c1cc(C(=O)N/N=C(\C)c2ccco2)[nH]n1 | inactive: 121% |
| COc1ccc(C(CNC(=O)COc2ccc(C)cc2)N2CCCCC2)cc1 (configuration not stated) | inactive: 105% |
| O=C(Cn1c(=O)oc2ccccc21)NCc1cccc(Cl)c1 | inactive: 78% |
| COc1ccc2c(CNCc3ccc(C)o3)c(C(=O)O)n(Cc3ccccc3)c2c1 | inactive: 85% |
| COc1ccc(Cl)cc1NC(=O)Cn1c2ncccc2c(=O)n1-c1ccc(C)c(C)c1 | inactive: 94% |
| Cc1cc(C)cc(N(CC(=O)Nc2cccc(C)c2C)S(=O)(=O)c2c(C)[nH]c(=O)[nH]c2=O)c1 | inactive: 82% |
| Cc1cccc(CCNC(=O)c2cc3ccccn3n2)c1 | inactive: 68% |
| COc1ccc(C2C=C(c3ccccc3)Nc3nc(NC(=O)c4ccc(C)cc4)nn32)cc1 (configuration not stated) | inactive: 61% |
| CCOc1cc(-c2nc(-c3ccc(-c4ccc(C)cc4)nc3OC)no2)cc(OCC)c1OCC | inactive: 56% |
| CCOC(=O)c1ccc(NC(=O)c2cc3cc(C)ccc3n2C)cc1 | inactive: 89% |
| Cc1ccc(-n2nc3c(=O)n(CC(=O)Nc4ccccc4F)nc(C)c3c2C)c(C)c1 | inactive: 86% |
| COC(=O)c1ccc(Cl)cc1NC(=O)N1CC(C)Oc2ccccc21 (configuration not stated) | inactive: 103% |
| Cc1ccc2cc(CN(CCO)C(=O)NCc3ccccc3)c(=O)[nH]c2c1 | inactive: 110% |
| Cc1cc(NS(=O)(=O)c2ccc(NC(=O)COc3ccc(Cl)cc3)cc2)nc(C)n1 | inactive: 73% |
| Cc1ccc(NC(=O)Nc2nnc(N(C)Cc3ccccc3)s2)cc1 | inactive: 101% |
| Cc1cccc(N2CCN(S(=O)(=O)c3ccc4c(c3)CCCN4C(=O)C3CCC3)CC2)c1C | inactive: 86% |
| COc1ccccc1N1CCN(C(=O)Cn2ncc3c(=O)oc4ccccc4c32)CC1 | inactive: 72% |
| CCN(CC)c1ccc(NC(=O)C(Cc2ccccc2)NS(=O)(=O)c2ccc(Br)s2)c(C)c1 (configuration not stated) | inactive: 127% |

| SMILES | survival |
| --- | --- |
| CC(=O)Nc1cccc(NC(=O)Cn2cnc3c2c(=O)n(C)c(=O)n3C)c1 | inactive: 75% |
| O=C(Nc1cccc(Cl)c1)c1c(NC(=O)C(F)(F)F)sc2c1CCCC2 | active: -2% |
| O=C(Nc1ccc(C(=O)OCc2cc(=O)n3nc(C4CC4)sc3n2)cc1)c1ccc(F)cc1 | inactive: 69% |
| Cc1nc(N2CCCC2)c2c(C(=O)Nc3cccc(C)c3C)c(C)oc2n1 | inactive: 90% |
| COc1ccc(CCNCc2c(C(=O)O)c(C)n(Cc3ccccc3C)c2C)c(OC)c1 | inactive: 91% |
| COc1cc(OC)c(NC(=O)COCc2cc(-c3cccs3)on2)cc1Cl | inactive: 73% |
| Cc1ccc(Cn2nnc3c(=O)[nH]c(C4CCN(S(=O)(=O)/C=C/c5ccccc5)CC4)nc32)cc1 | inactive: 85% |
| CCOc1ccccc1N(C)C(=O)Cn1cnc2sc(C)c(S(=O)(=O)N3CCC(C)CC3)c2c1=O | inactive: 88% |
| CN(C)CCN(Cc1ccco1)S(=O)(=O)c1cc2c(cc1Cl)NC(=O)CO2 | inactive: 65% |
| COc1ccccc1CCNC(=O)CCc1c(C)c2cc3c(C)coc3c(C)c2oc1=O | inactive: 89% |
| N#Cc1cn(CCOc2ccccc2F)c2ccccc12 | inactive: 108% |
| Cc1nn(CCCC(=O)Nc2ccccc2C(F)(F)F)c(=O)c2c1sc1ccccc12 | inactive: 86% |
| O=C(Cn1c(=O)n(Cc2ccco2)c(=O)c2oc3ccccc3c21)Nc1ccc(F)cc1F | inactive: 78% |
| Cc1cn2c(=O)cc(COc3ccc(NC(=O)c4cccc(F)c4)cc3)nc2s1 | inactive: 122% |
| CCC(Sc1nnc(C)n2c1cc1occc12)C(=O)Nc1ccccc1F (configuration not stated) | inactive: 106% |
| COc1cccc(NC(=O)Nc2cc(-c3cn4cccnc4n3)ccc2C)c1 | inactive: 82% |
| CN(C)S(=O)(=O)Nc1ccc(Cc2ccncc2)cc1 | inactive: 100% |
| Cn1c(=O)n(C)c2cc(NS(=O)(=O)c3ccccc3)c(NCc3ccccc3)cc21 | inactive: 74% |
| O=C(NCCO)C(=O)Nc1c2c(nn1-c1ccc(F)cc1)CSC2 | inactive: 99% |
| Cc1ccc(-c2noc(CNC(=O)c3ccc(C(C)(C)C)cc3)n2)cc1 | inactive: 89% |
| COC(=O)c1cc2oc3ccccc3c2n1CC(=O)Nc1ccc(OC)c(OC)c1OC | inactive: 82% |
| COc1ccccc1CNC(=O)CN1C(=O)CSc2ccc(S(=O)(=O)N3CCCC3)cc21 | inactive: 94% |

| SMILES | survival |
| --- | --- |
| CC(C)Oc1ccc(CNC(=O)C2CCN(C(=O)c3sccc3-n3cccc3)CC2)cc1 | inactive: 72% |
| CC(C)OCCCN(Cc1ccco1)C(=O)c1cc2c(s1)-c1ccccc1OC2 | active: 9% |
| CCN(CC)C(=O)Cn1cc(SCC(=O)Nc2cccc(C)c2)c2ccccc21 | inactive: 77% |
| COCc1cc(C)n(CC(=O)Nc2ccc(NC(C)=O)cc2)c(=O)c1C#N | inactive: 85% |
| Cc1ccc2[nH]c(=O)c(CN(Cc3ccccc3)C(=O)N(C)C)cc2c1 | inactive: 103% |
| Cc1ccc(S(=O)(=O)NCC2COc3ccccc3O2)cc1 (configuration not stated) | inactive: 126% |
| CC1=C(C#N)C(NC(=O)c2cccc(Cl)c2)(C(F)(F)F)C(=O)N1 (configuration not stated) | inactive: 78% |
| COC(=O)C1=C(C)NC(=O)CC1c1ccccc1 (configuration not stated) | inactive: 95% |
| COc1ccccc1-c1noc(-c2ccc(N3CCN(c4ccccc4)CC3)c([N+](=O)[O-])c2)n1 | inactive: 87% |
| COc1ccc(N2CCN(c3cc(C)nc4nc(-c5ccc(C)cc5)nn34)CC2)cc1 | inactive: 75% |
| Cc1cccc(C(=O)N2CCc3cc(CNC(=O)CCc4ccccc4)ccc32)c1 | inactive: 75% |
| Cc1ccc(Cl)cc1NC(=O)N1CCN(C)c2ncccc21 | inactive: 73% |
| Cc1ccc(S(=O)(=O)c2cn(C)c3cc(N4CCN(C)CC4)c(F)cc3c2=O)cc1 | inactive: 66% |
| CCCc1c(O)nc(SCC(=O)N(CC)CC)[nH]c1=O | inactive: 105% |
| CCOCCOC(=O)c1ccc(NC(=O)/C=C/c2ccc(OC)c(OC)c2)cc1 | inactive: 137% |
| O=C(CSc1ncc2c(n1)-c1ccccc1N(Cc1ccc(F)cc1)S2(=O)=O)c1ccc(Cl)cc1 | inactive: 72% |
| CCc1cc2c(cc3c(=O)n(CC(=O)N4CCN(c5cc(Cl)ccc5C)CC4)ncn32)s1 | inactive: 75% |
| COc1ccccc1C(=O)Nc1cc2c(cc1N1CCCCC1)n(C)c(=O)n2C | inactive: 88% |
| COc1ccc(Nc2c(-c3cc(Br)ccc3O)nc3ncccn23)cc1OC | inactive: 67% |
| Cc1cccc(C)c1-n1ncc(C(=O)Nc2ccc3c(c2)OCCO3)c1C1CCN(C(=O)OC(C)(C)C)CC1 | inactive: 70% |
| Cc1ccc(NCc2cccn2-c2nnc(N3CCC(C(=O)NCc4ccc(OC(C)C)cc4)CC3)s2)cc1 | inactive: 73% |
| COc1ccccc1N1CCN(S(=O)(=O)c2c(C)sc3ncn(CC(=O)N(C)c4ccc(C(C)C)cc4)c(=O)c23)CC1 | inactive: 77% |

| SMILES | survival |
| --- | --- |
| CCC1(C(=O)OC)NC(c2ccc(OC)cc2)C2C(=O)N(C)C(=O)C21 (configuration not stated) | inactive: 111% |
| CNS(=O)(=O)c1ccc(OC)c(-c2nnc3c4ccccc4c(C)nn23)c1 | inactive: 82% |
| COc1cccc(OC(=O)CSc2nnc(-c3ccccc3OC)o2)c1 | inactive: 88% |
| O=C(CN1C(=O)CSC1=O)c1ccccc1 | inactive: 111% |
| CCOc1ccc(NS(=O)(=O)c2ccc3[nH]cc(C(=O)NCc4ccco4)c(=O)c3c2)cc1 | inactive: 80% |
| O=c1cc(CN2CCN(S(=O)(=O)c3ccc(Cl)cc3)CC2)nc2sc(-c3ccccc3F)nn12 | inactive: 126% |
| O=S(=O)(NCCc1ccccc1)c1ccc(N2CCCCS2(=O)=O)cc1 | inactive: 64% |
| O=C(CSc1nc(-c2ccc(Cl)cc2)nc2c1Cc1ccccc1O2)N1CCCCC1 | inactive: 82% |
| Cc1ccc(N2C(=O)CS(=O)(=O)C23C(=O)N(Cc2cccc(F)c2)c2ccccc23)cc1Cl (configuration not stated) | inactive: 75% |
| COc1ccc(C(=O)O)cc1Nc1nc2ccc(C)cc2n2cnnc12 | inactive: 117% |
| Cc1cccc(NC(=O)c2sc3nc4n(c(=O)c3c2C)N=C(c2ccc(F)cc2)CS4)c1C | inactive: 95% |
| Cc1ccc(C)c(N2CCN(c3nc4ccccc4c4nc(CCn5nc(C)cc5C)nn34)CC2)c1 | inactive: 82% |
| COc1ccc(Cl)cc1NC(=O)c1cc2nc(-c3ccc4c(c3)OCO4)cc(C(F)(F)F)n2n1 | inactive: 65% |
| COCCN(C(=O)C1CC1)c1nnc(-c2cc(OC)c(OC)c(OC)c2)s1 | inactive: 97% |
| COC(=O)Cn1c(=O)c2c(nc3n2CCN3c2cccc(C)c2)n(C)c1=O | inactive: 90% |
| CCCCc1ccc(NC(=O)c2cc3c(=O)n4ccccc4nc3n2C)cc1 | inactive: 95% |
| COc1ccc2nc3sc(C(=O)Nc4ccccc4F)cc3cc2c1 | inactive: 90% |
| COc1ccc(NC(=O)CCCc2nc(-c3ccco3)no2)c(OC)c1 | inactive: 113% |
| CCN(CC)S(=O)(=O)c1ccc(NC(=O)[C@H](CSCc2ccccc2)N2Cc3ccccc3C2=O)cc1 | inactive: 130% |
| O=C(c1ccco1)N(Cc1cccnc1)c1nc2ccc(F)cc2s1 | inactive: 115% |
| COc1ccc(NC(=O)c2ccccc2NC(=O)c2ccco2)cc1 | inactive: 110% |
